{"source": "the supplement of paper PMC10600219", "note": "Where a name gives a salt, the structure may show the parent alone. The full ranking holds about 2,800 compounds; the median of “cell viability relative to vehicle” is about 0.98, and the lowest 2% start at about 0.45. The list shows a part of the results.", "data": [{"system": "NCI-H2228 alectinib-DTP", "experiment": "cell viability relative to vehicle (fraction of vehicle); NCI-H2228 is an ALK-positive lung cancer line and DTP means drug-tolerant persister; higher = less growth inhibition", "settings": "100 nM; treatment time 6 days", "outline": "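Values give cell viability as a fraction of vehicle-treated cells. Parental and drug-tolerant persister NCI-H2228 cells (persisters made with 1000 nM of a targeted drug for 13 days) were exposed in 384-well plates to the 3114-agent TargetMol anti-cancer compound library at 100 nM, with DMSO as vehicle. ATP was then read after 6 days by the CellTiter-Glo 3D Cell Viability Assay.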", "values": [{"compound": "CCCC(=O)OCOC(=O)C1=C(C)NC(C)=C(C(=O)OC)C1c1cccc(Cl)c1Cl", "note": "(stereo not drawn) [Clevidipine butyrate]", "cell viability": 1.22}, {"compound": "C[C@H]1COc2c(N3CCN(C)CC3)c(F)cc3c(=O)c(C(=O)O)cn1c23", "note": "[Levofloxacin Hemihydrate]", "cell viability": 0.911}, {"compound": "Cn1c(O)c(C2=c3ccccc3=NC2=O)c2ccccc21", "note": "[Methylisoindigotin]", "cell viability": 0.85}, {"compound": "Nc1ccc(S(=O)(=O)NCCc2ccccc2)cc1", "cell viability": 0.91}, {"compound": "Fc1ccc([C@@H]2CCNC[C@H]2COc2ccc3c(c2)OCO3)cc1", "note": "[Paroxetine hydrochloride]", "cell viability": 0.99}, {"compound": "Nc1nc(O)c2ncn(CCC(CO)CO)c2n1", "note": "[Penciclovir]", "cell viability": 0.955}, {"compound": "CN1CCN(c2ccc(OC(F)(F)F)c(Nc3ncc4c(n3)-c3c(c(C(N)=O)nn3CCO)CC4)c2)CC1", "cell viability": 0.704}, {"compound": "O=c1[nH]cnc2c1ncn2[C@H]1CC[C@@H](CO)O1", "note": "[Didanosine]", "cell viability": 0.953}, {"compound": "O=C(/C=C/N1C[C@H]2C[C@@H]1CN2c1ccccn1)c1ccccc1O", "cell viability": 0.925}, {"compound": "CC1COc2c(N3CCN(C)CC3)c(F)cc3c(=O)c(C(=O)O)cn1c23", "note": "(stereo not drawn) [Ofloxacin]", "cell viability": 1.08}, {"compound": "CCOC(=O)Nc1ccc(NCc2ccc(F)cc2)nc1N", "note": "[Flupirtine maleate]", "cell viability": 0.988}, {"compound": "CCOc1cc(C(C)(C)C)ccc1C1=N[C@@](C)(c2ccc(Cl)cc2)[C@@](C)(c2ccc(Cl)cc2)N1C(=O)N1CCN(CCCS(C)(=O)=O)CC1", "cell viability": 1.16}, {"compound": "Cc1cc(C)nc(NC(=S)N2CCN(Cc3ccc(C(F)(F)F)cc3)CC2)c1", "cell viability": 1.21}, {"compound": "CC(C)=CCc1cc2c(cc1O)oc(=O)c1c3ccc(O)cc3oc21", "note": "[Psoralidin]", "cell viability": 1.15}, {"compound": "C[C@H](CCC(=O)O)[C@H]1CC[C@H]2[C@@H]3CC[C@@H]4C[C@H](O)CC[C@]4(C)[C@H]3CC[C@]12C", "note": "[Lithocholic acid]", "cell viability": 0.908}, {"compound": "S=C(NCc1ccc2c(c1)OCO2)N1CCN(c2ncnc3c2oc2ccccc23)CC1", "note": "[Amuvatinib]", "cell viability": 0.914}, {"compound": "CC(=O)OCC[N+](C)(C)C", "note": "[Acetylcholine chloride]", "cell viability": 1.17}, {"compound": "CC1(C)CCC2=C(O1)c1ccccc1C(=O)C2=O", "note": "[Beta-Lapachone]", "cell viability": 1.07}, {"compound": "CC(C)C(=O)Nc1ccc([N+](=O)[O-])c(C(F)(F)F)c1", "note": "[Flutamide]", "cell viability": 1.03}, {"compound": "Cn1cnc([N+](=O)[O-])c1Sc1ncnc2[nH]cnc12", "note": "[Azathioprine]", "cell viability": 0.914}, {"compound": "CN(C)CCCn1cc(C2=C(c3c[nH]c4ccccc34)C(=O)NC2=O)c2ccccc21", "note": "[Bisindolylmaleimide I]", "cell viability": 0.925}, {"compound": "COc1cccc(-c2cc(F)ccc2[C@H]2Cc3nc(N)nc(C)c3C(=O)N2)n1", "cell viability": 0.502}, {"compound": "COc1nc(N)nc2c1ncn2[C@@H]1O[C@H](CO)[C@@H](O)[C@@H]1O", "note": "[Nelarabine]", "cell viability": 0.995}, {"compound": "O=C(Nc1cccc(Nc2ncc(Br)c(NCCc3cnc[nH]3)n2)c1)N1CCCC1", "cell viability": 1.02}, {"compound": "COc1ccccc1N1CCN(CCCNc2cc(=O)n(C)c(=O)n2C)CC1", "note": "[Urapidil]", "cell viability": 1.09}, {"compound": "COc1ccccc1N1CCN(CCCNc2cc(=O)n(C)c(=O)n2C)CC1", "note": "[Urapidil hydrochloride]", "cell viability": 1.1}, {"compound": "C[C@H](CCOc1cccc(CC(=O)O)c1)N(Cc1cccc(C(F)(F)F)c1Cl)CC(c1ccccc1)c1ccccc1", "cell viability": 0.781}, {"compound": "CCN(CC)Cc1cc(Nc2ccnc3cc(Cl)ccc23)ccc1O", "note": "[Amodiaquine hydrochloride]", "cell viability": 1.2}, {"compound": "CN(C)c1ccccc1CN1CCCN(Cc2ccccc2N(C)C)C1c1ccncc1", "cell viability": 1.09}, {"compound": "OC[C@H]1O[C@@H](n2cnc3c2N=CNC[C@H]3O)C[C@@H]1O", "note": "[Pentostatin]", "cell viability": 1.04}, {"compound": "O=c1c2ccccc2nc2n1CCc1c-2[nH]c2ccccc12", "note": "[Rutaecarpine]", "cell viability": 1.03}, {"compound": "O=C(O)C(S)=Cc1c[nH]c2ccc(F)cc12", "cell viability": 0.843}, {"compound": "COc1ccc2[nH]c(C(=O)c3ccccc3)cc2c1", "cell viability": 0.576}, {"compound": "O=C(/C=C/C=C/c1ccc2c(c1)OCO2)N1CCCCC1", "note": "[Piperine]", "cell viability": 1.07}, {"compound": "CC(=O)NCCC(=O)O", "cell viability": 0.958}, {"compound": "C#CCN(C)CCCOc1ccc(Cl)cc1Cl", "note": "[Clorgyline hydrochloride]", "cell viability": 0.993}, {"compound": "O=C(O)CN(CCN(CC(=O)O)CC(=O)O)CCN(CC(=O)O)CC(=O)O", "note": "[Pentetic Acid]", "cell viability": 1.17}, {"compound": "O=C1/C(=C/c2ccc(O)cc2)Oc2cc(O)ccc21", "note": "[Hispidol]", "cell viability": 1.04}, {"compound": "CC(=O)/C(C)=N/O", "note": "[2,3-Butanedione 2-Monoxime]", "cell viability": 1.09}, {"compound": "CC(C)NCC(O)c1cc(O)cc(O)c1", "note": "(stereo not drawn) [Orciprenaline sulfate]", "cell viability": 0.913}, {"compound": "CC(C)Cc1ccc(-c2nc(-c3ccc(CN4CC(C(=O)O)C4)c(F)c3)no2)cc1", "note": "[S1p-receptor-agonist-1]", "cell viability": 1.03}, {"compound": "CC(C(=O)Nc1cccc(/N=C/c2c(O)ccc3ccccc23)c1)c1ccccc1", "note": "(stereo not drawn) [Salermide]", "cell viability": 0.89}, {"compound": "C[C@@]1(c2cc(-c3cncnc3)c(F)cc2F)CCSC(N)=N1", "cell viability": 1.06}, {"compound": "C[C@H]1Oc2cc(cnc2N)-c2c(nn(C)c2C#N)CN(C)C(=O)c2ccc(F)cc21", "note": "[Lorlatinib]", "cell viability": 1.12}, {"compound": "CCCN1CCN(c2ccc(C(=O)NC3(C(=O)NCC#N)CCCCC3)cc2)CC1", "note": "[Balicatib]", "cell viability": 0.934}, {"compound": "CC(=O)Nc1ccc(C(=O)NC(C)(C)C)cc1", "cell viability": 0.817}, {"compound": "O=C1NC(=O)[C@@H](c2cn3c4c(cccc24)CCC3)[C@@H]1c1c[nH]c2ccccc12", "note": "[Tivantinib]", "cell viability": 0.992}, {"compound": "CCc1cnn2c(NCc3ccc[n+]([O-])c3)cc(N3CCCC[C@H]3CCO)nc12", "note": "[Dinaciclib]", "cell viability": 0.17}, {"compound": "CC(C)(C(=O)NCC(F)(F)C(F)(F)F)C(=O)N[C@@H]1C(=O)Nc2ccccc2-c2ccccc21", "cell viability": 1.09}, {"compound": "O=C(O[C@@H]1Cc2c(O)cc(O)cc2O[C@H]1c1cc(O)c(O)c(O)c1)c1cc(O)c(O)c(O)c1", "note": "[(-)-Gallocatechin gallate]", "cell viability": 1.03}, {"compound": "Cc1cc(C)c(CNC(=O)c2cc(-c3ccc(N4CCN(C)CC4)nc3)cc3c2c(C)cn3C(C)C)c(=O)[nH]1", "cell viability": 1.08}, {"compound": "CNCCCN1c2ccccc2CCc2ccccc21", "note": "[Desipramine hydrochloride]", "cell viability": 0.995}, {"compound": "O=C1c2c(O)cc(O)cc2O[C@H](c2cc(O)c(O)c(O)c2)[C@H]1O", "note": "[Dihydromyricetin]", "cell viability": 1.04}, {"compound": "Cc1ccsc1C(=CCCN1CCC[C@@H](C(=O)O)C1)c1sccc1C", "note": "[Tiagabine]", "cell viability": 0.927}, {"compound": "O=C(CNc1ccc2ccccc2c1)N/N=C/c1cc(Br)c(O)c(Br)c1O", "cell viability": 0.858}, {"compound": "C[C@H]1[C@H](OC(=O)CCC(=O)O)O[C@@H]2O[C@@]3(C)CC[C@H]4[C@H](C)CC[C@@H]1[C@@]24OO3", "note": "[Artesunate]", "cell viability": 1.12}, {"compound": "Cc1c(CN2CCN(c3cccc(C(F)(F)F)c3)CC2)cc(-c2ccccc2)n1NC(=O)c1ccncc1", "note": "[Sudoterb free base]", "cell viability": 0.959}, {"compound": "CN(C)CCNC(=O)c1cccn2c(=O)c3cc4ccccc4cc3nc12", "cell viability": 0.825}, {"compound": "C[n+]1ccccc1/C=N/O", "note": "[Pralidoxime Chloride]", "cell viability": 1.05}, {"compound": "CCC(C)n1ncn(-c2ccc(N3CCN(c4ccc(OCC5COC(Cn6cncn6)(c6ccc(Cl)cc6Cl)O5)cc4)CC3)cc2)c1=O", "note": "(stereo not drawn) [Itraconazole]", "cell viability": 1.03}, {"compound": "Cc1cccc(Nc2ccccc2C(=O)O)c1C", "note": "[Mefenamic acid]", "cell viability": 1.08}, {"compound": "COC(=O)[C@H](CCSC)NC(=O)c1ccc(NC[C@@H](N)CS)cc1-c1ccccc1", "note": "[FTI 277 hydrochloride]", "cell viability": 1.1}, {"compound": "CCOc1cc(N)c(Cl)cc1C(=O)NCC1CN(Cc2ccc(F)cc2)CCO1", "note": "(stereo not drawn) [Mosapride Citrate]", "cell viability": 0.812}, {"compound": "O=C(O)CCNC(=O)c1ccc(/N=N/c2ccc(O)c(C(=O)O)c2)cc1", "note": "[Balsalazide disodium salt dihydrate]", "cell viability": 1.03}, {"compound": "OC[C@H]1O[C@@H](Oc2ccc3c(c2)OC[C@H]2c4cc5c(cc4O[C@@H]32)OCO5)[C@H](O)[C@@H](O)[C@@H]1O", "note": "[Trifolirhizin]", "cell viability": 1.05}, {"compound": "CCCCc1nc(Cl)c(CO)n1Cc1ccc(-c2ccccc2-c2nnn[nH]2)cc1", "note": "[Losartan]", "cell viability": 1.06}, {"compound": "CCCCc1nc(Cl)c(CO)n1Cc1ccc(-c2ccccc2-c2nnn[nH]2)cc1", "note": "[Losartan potassium]", "cell viability": 1.07}, {"compound": "CC1(C)S[C@@H]2[C@H](NC(=O)Cc3ccccc3)C(=O)N2[C@H]1C(=O)O", "note": "[Penicillin G sodium salt]", "cell viability": 0.917}, {"compound": "COc1c(O)cc2oc3cc(O)c(CC=C(C)C)c(O)c3c(=O)c2c1CC=C(C)C", "note": "[Mangostin]", "cell viability": 1.01}, {"compound": "O=C(Nc1cccc2cccnc12)c1ccc(N2C(=O)[C@@H]3[C@H](C2=O)[C@@H]2C=C[C@H]3C2)cc1", "note": "[IWR-1-endo]", "cell viability": 0.926}, {"compound": "CC(=O)OCC1=C(C(=O)O)N2C(=O)[C@@H](NC(=O)Cc3cccs3)[C@H]2SC1", "note": "[Cephalothin sodium]", "cell viability": 1.03}, {"compound": "C=CCn1c(=O)c2cnc(Nc3ccc(N4CCN(C)CC4)cc3)nc2n1-c1cccc(C(C)(C)O)n1", "note": "[Adavosertib]", "cell viability": 0.8}, {"compound": "Cc1nc2n(c(=O)c1CCN1CCC(c3noc4cc(F)ccc34)CC1)CCCC2O", "note": "(stereo not drawn) [Paliperidone]", "cell viability": 0.929}, {"compound": "C[C@H](CCC(=O)NCCS(=O)(=O)O)[C@H]1CC[C@H]2[C@@H]3[C@@H](O)C[C@@H]4C[C@H](O)CC[C@]4(C)[C@H]3CC[C@]12C", "note": "[Tauroursodeoxycholic Acid]", "cell viability": 0.992}, {"compound": "c1cn2cc(-c3ccc4cn[nH]c4c3)nc(Nc3ccc(N4CCOCC4)cc3)c2n1", "note": "[Entospletinib]", "cell viability": 0.952}, {"compound": "O=C1CCC(N2C(=O)c3ccccc3C2=O)C(=O)N1", "note": "(stereo not drawn) [Thalidomide]", "cell viability": 1.03}, {"compound": "COc1c2ccoc2cc2oc(=O)ccc12", "note": "[Bergapten]", "cell viability": 1.13}, {"compound": "CCC(Sc1nnc2c(n1)[nH]c1ccccc12)C(=O)N1c2ccccc2Sc2ccccc21", "note": "(stereo not drawn) [Inauhzin]", "cell viability": 1.06}]}]}
